Consider 30 molecules from PubChem BioAssay AID1240 (Sanford-Burnham Center for Chemical Genomics, 2008).

Screen size: about 50,000 compounds; about 800 (1.6%) showed an effect of 50% or more. The list shows a part of the results.

This test has as its target Bcl-2-like protein 10 (Homo sapiens) (UniProt Q9HD36). The test is described as follows: TR3 peptide-Bcl-B binding displacers, biochemical primary FP assay, phenotype converters (AID 1240).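 Note: 0% = Bcl-B with tracer peptide and DMSO and 100% = tracer peptide lacking Bcl-B.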 As to conditions: GST-Bcl-B / FITC-TR3 peptide fluorescence polarization; stronger effect = higher value; compound at 3.75 mg/L.
UniProt Q9HD36, sequence (Q9HD36 whole entry, looked up): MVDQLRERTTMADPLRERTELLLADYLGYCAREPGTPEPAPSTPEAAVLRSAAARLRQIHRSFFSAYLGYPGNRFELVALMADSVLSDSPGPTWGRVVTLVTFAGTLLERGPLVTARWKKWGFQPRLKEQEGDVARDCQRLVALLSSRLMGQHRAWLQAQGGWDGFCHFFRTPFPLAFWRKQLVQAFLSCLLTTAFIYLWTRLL
As for `NNC(=O)/C(=C\c1ccco1)NC(=O)c1ccco1`, the displacement was -6.5%.

Take `COc1nc(-c2ccccc2)c2cc(Br)ccc2n1`: the displacement is -5.2%.

Take `COC(=O)c1cc(=O)[nH]c(Nc2nc3ccccc3o2)n1`: the displacement is 9.2%.

Regarding `COc1ccc(N(CC(=O)Nc2ccccc2OC)S(=O)(=O)c2ccccc2)cc1Cl`, the displacement turned out to be 4.6%.

Turning to `COc1ccc2ccccc2c1/C=N/NC(=O)Cc1nnc(N)s1`, the displacement is 2.4%.

Regarding `CC(C)(C)c1cc(C(=O)N/N=C\c2ccc(Cl)cc2)n[nH]1`, the displacement is -5.3%.

For the molecule `O=C(Nc1cccc(C(F)(F)F)c1)c1ccc(-c2cccc(Cl)c2)o1`, the displacement is -3.8%.

`COc1ccc(NC(=O)c2ccc3c(c2)C(=O)N(c2ccccc2-c2ccccc2)C3=O)c(OC)c1`: the displacement was determined as 12.7%.

As to `O=C(NC1CCCCC1)C(c1ccccc1)c1ccccc1`, the displacement was -2.4%.

With `O=C1CN(S(=O)(=O)c2cccc([N+](=O)[O-])c2)CC(=O)N1`, the displacement is -9.1%.

On to `COc1ccccc1NC(=O)C1=C(C)NC(=S)NC1c1cccc(Br)c1` (stereo not given), for which the displacement is -26.7%.

Regarding `Cc1ccc(/C=C2\C(=O)NC(=S)N(c3ccc(Br)cc3)C2=O)o1`, the displacement was 18.7%.

In the case of `CSc1nnc2n(-c3ccccc3)c(=O)c3c4c(sc3n12)CCCCC4`, the displacement was -3.9%.

For the molecule `CC1=C(C(=O)OCC(C)C)C(c2ccc([N+](=O)[O-])cc2)NC(=O)N1` (stereo not given), the displacement amounted to 15.2%.

For the molecule `C/C(NCc1ccccc1)=C(\C#N)C(=O)NCc1ccccc1`, the displacement is -2.4%.

Turning to `O=C(Nc1ccccn1)C(O)c1ccccc1` (stereo not given), the displacement was determined as 16.8%.

Take `O=C(Nc1ccccc1C(=O)N1CCOCC1)c1ccc(Cl)cc1`: the displacement is -7.9%.

Take `Cc1c(NC(=O)c2cc3nc(-c4ccccc4)cc(C)n3n2)c(=O)n(-c2ccccc2)n1C`: the displacement amounted to 18.1%.

For `COC(=O)c1c(-c2ccc(OC)c(OC)c2)csc1N`, the displacement came to 3.5%.

In the case of `Cc1cccc(N2C(=O)/C(=C/c3ccc([N+](=O)[O-])cc3)SC2=S)c1C`, the displacement is -13%.

Turning to `O=S(=O)(Nc1ccc(SC(F)F)cc1)c1cccc2cccnc12`, the displacement stood at 1.7%.

Take `CCOC(=O)C1=C(C)NC(=S)NC1c1cn(-c2ccccc2)nc1-c1ccccc1` (stereo not given): the displacement was -1.6%.

For `S=C(Nc1ccccc1)Nc1ccc(-c2ccc(NC(=S)Nc3ccccc3)cc2)cc1`, the displacement was found to be 12.1%.

Turning to `Cc1cccc(NC(=O)c2ccccc2[N+](=O)[O-])c1`, the displacement was -5%.

`Clc1ccc(N2CCN(/N=C\c3ccc(Br)cc3)CC2)cc1`: the displacement was -1%.

`O=C(CNc1cccc2ccccc12)c1ccc([N+](=O)[O-])cc1`: the displacement amounted to 11.2%.

On to `CCC(=O)Nc1sc2c(c1C(=O)Nc1ccccc1OC)CCC2`, for which the displacement was 11.9%.

Take `Cc1ccc(N(CC(=O)Nc2ccc(C(C)C)cc2)S(C)(=O)=O)cc1Cl`: the displacement stood at 2.8%.

Regarding `CCCCC1CCC(c2nc(-c3ccccn3)no2)CC1` (stereo not given), the displacement was -6%.

Turning to `O=c1ccn(Cc2ccccc2)c(=O)n1Cc1ccccc1`, the displacement is -2.3%.
